Assay results taken from PubChem BioAssay AID652106 (National Center for Advancing Translational Sciences (NCATS), 2013).
Out of some 370,000 compounds screened, about 500 (0.14%) were called active. Inconclusive results, whose numbers are uncertain, are shown with a selection of clear calls. Calls come from the whole dose curve; as a rule, active = well fitted activation curve with a large enough effect; inconclusive = small, poorly fitted or top-dose-only effect; inactive = no such curve, though single readings can be large or run the other way. No potency is given beside an inconclusive call; the fits are too rough.

test: qHTS of alpha-syn Inhibitors; details: Yeast expressing alpha-synuclein, BacTiter-Glo, 24 h; Potency: growth rescue unless noted; growth rescue (activation): at 46.1 µM (top of the series) unless noted; note: nearly all actives have a fitted effect of over 65% in size; for growth rescue (activation): % of control where 0% means no effect
In short: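 Screening used galactose-induced yeast with toxic alpha-synuclein levels, exposed to compound for 24 hr at 30 deg C. Cell growth, read with BacTiter-Glo luminescence, gave the measured signal.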
Potency is the fitted concentration of half-maximal effect; tags give direction and shape of the fitted curve.

| Compound | Potency | growth rescue (activation) |
| --- | --- | --- |
| COc1ccc(C)cc1S(=O)(=O)NCc1cccs1 | inactive | – |
| O=C(CS(=O)(=O)c1cccc2nsnc12)Nc1ccccc1 | inactive | – |
| Nc1c(Cl)cc(C=O)cc1Cl | inactive | – |
| CN(C)c1ccc(-c2[nH][nH]c(=O)c2NC(=O)c2ccccn2)cc1 | inconclusive [activator, single point] | – |
| O=C(CN1CCN(CC(=O)Nc2ccccc2F)CC1)Nc1ccc2c(c1)OCCO2 | inactive | – |
| COc1ccccc1OCCn1nc2ccccc2c1OC | inconclusive [activator, single point] | – |
| Cc1ccnc2ccccc12 | inactive | – |
| COc1ccc(S(=O)(=O)N(C)[C@H]2C[C@H]3c4cc(-c5ccccc5)ccc4CCN3C(=O)[C@H]2[C@H](C)O)cc1 | inconclusive [activator, single point] | – |
| N#Cc1cccnc1N1CCN(C(=O)c2ccc3c(c2)S(=O)(=O)c2ccccc2C3=O)CC1 | inactive | – |
| CCC(NC(=O)c1cc(COc2cncc(Cl)c2)on1)c1ccc(C)cc1 (centres undefined) | – | inconclusive: 46.6% [activator] |
| COc1ccc(NC(=O)Nc2nc3c(s2)CCCC3)cc1 | active: 12.6 µM | – |
| COc1cc(C(=O)N2CCC2(C)C(=O)O)cc(OC)c1OC (centres undefined) | inactive | – |
| CCCCCc1c(O)c2ccccc2[nH]c1=O | inactive | – |
| Fc1ccc(-n2c(Cc3ccccc3)nnc2SCc2nc(-c3ccc(Cl)cc3)no2)cc1 | inconclusive [activator, single point] | – |
| O=C(COc1ccc(Cl)cc1Cl)NCCN1CCCC1 | inconclusive [activator, single point] | – |
| COc1ccc(NC(=O)CS(=O)c2ccc(F)cc2)cc1 (centres undefined) | inactive | – |
| O=c1c2ccccc2nc2n1C(CSc1ccc(Br)cc1)CN2 (centres undefined) | inconclusive [activator, single point] | – |
| O=S(=O)(Nc1cccc(Br)c1)c1cccc2nsnc12 | inconclusive [activator, partial curve] | – |
| O=C(CS(=O)(=O)c1ccccc1)Nc1nc(-c2ccc(F)cc2)cs1 | inactive | – |
| O=C1CCCN1CCCNS(=O)(=O)c1ccccc1 | inconclusive [activator, single point] | – |
| Cc1sc2nc(CSc3ccccc3)nc(N3CCC(C(N)=O)CC3)c2c1C | inactive | – |
| O=C(Nc1ccon1)c1cccc(Cl)c1 | inconclusive [activator, single point] | – |
| CCOC(=O)N1CCN(C(=O)Cn2c(=O)sc3ccccc32)CC1 | inactive | – |
| CC(C)c1ccc(NC(=O)CS(=O)(=O)c2cccc3nsnc23)cc1 | inconclusive [activator, single point] | – |
